Measured values taken from the RNAGym collection of RNA variant scans (doi:10.7554/elife.90254).
The source gives no read counts; variants with many changes may rest on few reads.

B1: OR4K15 (parent)
chain: GUUAACGGUCAUAGGCCAUGGAAACUAGGAGCACCAUUUCGCUGCCAGUGAAGAAAUGAACAAAGAAAAUCUGGGCCAGGCAGGCAUCAAAAGAAAUAGUCUUGCGCUCAACCAGAAAGUCUGUAAUCAUUUUAAGGGUA

Variants of: B1
Experiment: self-cleavage, relative activity (ratio to wild type); higher = more cleavage; in vitro, sequencing; the parent is a self-cleaving ribozyme
Work on U39A U49C A91G A117G A140U yielded a self-cleavage of 0.37. A5G A47G U108C gave a self-cleavage of 0.02. Variant A23G A69G A89G A118G U122C has a self-cleavage of 0.11. Work on A51G A68G U97C yielded a self-cleavage of 1.06. A95G U108C U127C showed a self-cleavage of 0. U39G G79C U124A A126G gave a self-cleavage of 0.01. U39C A55G A118G gave a self-cleavage of 2.25. A24C A55G A90G G123A gave a self-cleavage of 0.49. Work on A4G A60G U72C yielded a self-cleavage of 0.3. Work on A94U U97A A118U yielded a self-cleavage of 0.69. Work on C17A A23G A135U yielded a self-cleavage of 1.16. For A24G A78G A118G, the self-cleavage was 0.18. A33U A67G U108C A111U A126U showed a self-cleavage of 0. A55U A60G G73A A86G showed a self-cleavage of 0.32. Work on U2C A24C A54G A117U yielded a self-cleavage of 0.23. In the case of A64G A82G A95G, the self-cleavage is reported as 1.29. Variant C6A A66G A69U U124A has a self-cleavage of 0.2. Variant A22G A30G C35U A98G A140G has a self-cleavage of 1.38. A47C G79A U87C gave a self-cleavage of 0.11. Variant U2C U49C A60U has a self-cleavage of 1.39. Variant G14A U39C A52G A59G A67G A111G has a self-cleavage of 0.02. With A52G U70C A117G U130C the self-cleavage was 0.61. Work on A62G A82G A129G yielded a self-cleavage of 0.13. For A4G U49C A60G A82G A89G A98G U122C, the self-cleavage was 0.05. A11U A23G A116C gave a self-cleavage of 0.1. In the case of A24G A66G C85U U120C, the self-cleavage is reported as 0.97. A36G A60G A114G U130A showed a self-cleavage of 0.07. For C35U U39A A91G A116G U131C, the self-cleavage was 0.16. Work on C16U A54G A118U A125U yielded a self-cleavage of 1.1. With U19A G41A G79A A94G U122A the self-cleavage was 0.11. For U37C U43A U70C A96U, the self-cleavage was 2.32. Variant U49C A52G C71U A90U A129G has a self-cleavage of 0.13. In the case of A24G A59G A62G A78G A94G U108G U127C, the self-cleavage is reported as 0.02. Work on A11G A56G A64G yielded a self-cleavage of 0.79. In the case of A22G A36G U39C A117G U131C, the self-cleavage is reported as 1.33. With A47G A111G A129G the self-cleavage was 0.01. Work on U100C A129G A135C yielded a self-cleavage of 2.09. For U19C A33G A110U, the self-cleavage was 0.46. For A24G A30G A89G, the self-cleavage was 1.37. With A11G G41A U132C the self-cleavage was 0.76. For A55G U102C A111G, the self-cleavage was 0.02. A5G A23G A60G A64C A69U A117G gave a self-cleavage of 0.73. C17U A92G A94G showed a self-cleavage of 1.6. A47G A62G A63G showed a self-cleavage of 1.78. G44A U49C A66G U132C gave a self-cleavage of 0.6. Variant A4G G21U U120G has a self-cleavage of 1.67. Work on A55G A67C A86G yielded a self-cleavage of 0.72. A36G U72C U100C gave a self-cleavage of 0.93. Work on U39C A60G A62G yielded a self-cleavage of 0.19. Variant U38C A47G A89U has a self-cleavage of 0.46. For A56U A96C U100C, the self-cleavage was 1.67. In the case of U12A A67G A98C A110G A118G, the self-cleavage is reported as 0.2. For A5U A18G U49C A110G, the self-cleavage was 0.03. Variant G1U A59G A60G has a self-cleavage of 0.95. Variant U37C A90G U131C has a self-cleavage of 0.69. For U37A A59G U108G A118G, the self-cleavage was 0. For A90U A116G A134U, the self-cleavage was 1.47. Work on A24G A51G A90G A96G A116U yielded a self-cleavage of 0.22. With A13G A23C A66G the self-cleavage was 0.85. U26A A114U U120A gave a self-cleavage of 0.04. Variant U3A A82G U87C has a self-cleavage of 0.34. In the case of A24G A27G A126G, the self-cleavage is reported as 0.94. Work on A51U A82G A111G A116G yielded a self-cleavage of 0.01. U37C U38C A56C U57A A126G gave a self-cleavage of 0.35. A33U U43A A95G showed a self-cleavage of 0.13. For U12C A22G U108A, the self-cleavage was 0.05. In the case of A89C U102C A114U, the self-cleavage is reported as 0.19. U9C A82G A95U A110G showed a self-cleavage of 0.05. U19C A36U A92G U108C gave a self-cleavage of 0.03. Work on A22G A36U A55G U72A A94G yielded a self-cleavage of 0.09. In the case of U9C A23U U87C U108C, the self-cleavage is reported as 0.02. U3A U87A A114U showed a self-cleavage of 0.03. In the case of A13G A18U A116G, the self-cleavage is reported as 0.19. For A91G A92G U102A, the self-cleavage was 0.22. In the case of A64G U72A U122G, the self-cleavage is reported as 0.61. A11U U37C A89U A98G showed a self-cleavage of 1.23. With A60U A66G A90G the self-cleavage was 1.05. With A30G G75C A89U A98G U103A A126G the self-cleavage was 0.01. U37C U70A U127C gave a self-cleavage of 0.37. With A55G U100C A116U the self-cleavage was 0.52. Work on A22G U39A C105G yielded a self-cleavage of 0.04. Variant A55G A63C U72C A117G has a self-cleavage of 0.47. With A51G U132C A135G the self-cleavage was 0.74. For U49C A55G A56G U87A A135G, the self-cleavage was 0.94.
